Reference: patent US20240358826A1 (ORIONIS BIOSCIENCES, published 2024)

T1: IL-1R (IL-1 Receptor) (UniProt P14778 18-569, limits assumed)
T1 sequence (looked up): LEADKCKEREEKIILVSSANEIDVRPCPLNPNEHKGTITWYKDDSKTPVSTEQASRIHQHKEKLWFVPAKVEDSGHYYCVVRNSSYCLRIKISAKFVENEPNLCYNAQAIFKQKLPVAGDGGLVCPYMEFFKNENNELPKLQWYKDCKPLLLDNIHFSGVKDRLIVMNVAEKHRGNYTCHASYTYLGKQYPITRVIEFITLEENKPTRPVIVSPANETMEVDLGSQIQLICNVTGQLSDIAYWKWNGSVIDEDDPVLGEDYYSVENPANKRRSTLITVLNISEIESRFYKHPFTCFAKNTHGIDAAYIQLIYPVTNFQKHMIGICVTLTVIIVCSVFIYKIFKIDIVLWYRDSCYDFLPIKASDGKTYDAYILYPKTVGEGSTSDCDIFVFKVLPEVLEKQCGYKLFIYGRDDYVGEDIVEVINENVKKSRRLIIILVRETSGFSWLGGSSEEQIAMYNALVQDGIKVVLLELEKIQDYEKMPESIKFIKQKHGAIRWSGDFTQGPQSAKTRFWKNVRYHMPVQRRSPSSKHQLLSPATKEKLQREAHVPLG

B1: CD8 VHH_5GGS_Fc_hole + Fc-knob_20GGS_IL1α delta 1-6 (Fc fusion)
chain 1: DVQLQESGGGLVQPGGSLRLSCAASGSIFSINVMGWYRQTPGKERELVAKITNFGITSYADSAQGRFTISRGNAKNTVYLQMNSLKPEDTAVYYCNLDTTGWGPPPYQYWGQGTQVTVSSGGSGGSGGSGGSGGSDKTHTCPPCPAPEAAGGPSVFLFPPKPKDTLMISRTPEVTCVVVDVSHEDPEVKFNWYVDGVEVHNAKTKPREEQYNSTYRVVSVLTVLHQDWLNGKEYKCQVSNKALPAPIEKTISKAKGQPREPQVCTLPPSRDELTKNQVSLSCAVKGFYPSDIAVEWESNGQPENNYKTTPPVLDSDGSFFLVSKLTVDKSRWQQGNVFSCSVMHEALHNHYTQKSLSLSPGK
chain 2: [letters of human IgG1 Fc with changes not shown]GGSGGSGGSGGSGGSGGSGGSGGSGGSGGSGGSGGSGGSGGSGGSGGSGGSGGSGGSGGSLSNVKYNFMRIIKYEFILNDALNQSIIRANDQYLTAAALHNLDEAVKFDMGAYKSSKDDAKITVILRISKTQLYVTAQDEDQPVLLKEMPEIPKTITGSETNLLFFWETHGTKNYFTSVAHPNLFIATKQDYWVCLAGGPPSITDFQILENQA
B2: CD8 VHH_5GGS_Fc_hole + Fc-knob_20GGS_IL1α delta 1-6_R16A (Fc fusion)
chain 1: B1 chain 1
chain 2: [letters of human IgG1 Fc with changes not shown]GGSGGSGGSGGSGGSGGSGGSGGSGGSGGSGGSGGSGGSGGSGGSGGSGGSGGSGGSGGSLSNVKYNFMAIIKYEFILNDALNQSIIRANDQYLTAAALHNLDEAVKFDMGAYKSSKDDAKITVILRISKTQLYVTAQDEDQPVLLKEMPEIPKTITGSETNLLFFWETHGTKNYFTSVAHPNLFIATKQDYWVCLAGGPPSITDFQILENQA
B3: CD8 VHH_5GGS_Fc_hole + Fc-knob_20GGS_IL1α delta 1-6_M15G (Fc fusion)
chain 1: B1 chain 1
chain 2: [letters of human IgG1 Fc with changes not shown]GGSGGSGGSGGSGGSGGSGGSGGSGGSGGSGGSGGSGGSGGSGGSGGSGGSGGSGGSGGSLSNVKYNFGRIIKYEFILNDALNQSIIRANDQYLTAAALHNLDEAVKFDMGAYKSSKDDAKITVILRISKTQLYVTAQDEDQPVLLKEMPEIPKTITGSETNLLFFWETHGTKNYFTSVAHPNLFIATKQDYWVCLAGGPPSITDFQILENQA
B4: CD8 VHH_5GGS_Fc_hole + Fc-knob_20GGS_IL1α delta 1-6_I18A (Fc fusion)
chain 1: B1 chain 1
chain 2: [letters of human IgG1 Fc with changes not shown]GGSGGSGGSGGSGGSGGSGGSGGSGGSGGSGGSGGSGGSGGSGGSGGSGGSGGSGGSGGSLSNVKYNFMRIAKYEFILNDALNQSIIRANDQYLTAAALHNLDEAVKFDMGAYKSSKDDAKITVILRISKTQLYVTAQDEDQPVLLKEMPEIPKTITGSETNLLFFWETHGTKNYFTSVAHPNLFIATKQDYWVCLAGGPPSITDFQILENQA
B5: CD8 VHH_5GGS_Fc_hole + Fc-knob_20GGS_IL1α delta 1-6_R16G (Fc fusion)
chain 1: B1 chain 1
chain 2: [letters of human IgG1 Fc with changes not shown]GGSGGSGGSGGSGGSGGSGGSGGSGGSGGSGGSGGSGGSGGSGGSGGSGGSGGSGGSGGSLSNVKYNFMGIIKYEFILNDALNQSIIRANDQYLTAAALHNLDEAVKFDMGAYKSSKDDAKITVILRISKTQLYVTAQDEDQPVLLKEMPEIPKTITGSETNLLFFWETHGTKNYFTSVAHPNLFIATKQDYWVCLAGGPPSITDFQILENQA
B6: CD8 VHH_5GGS_Fc_hole + Fc-knob_20GGS_IL1α delta 1-6_S31A (Fc fusion)
chain 1: B1 chain 1
chain 2: [letters of human IgG1 Fc with changes not shown]GGSGGSGGSGGSGGSGGSGGSGGSGGSGGSGGSGGSGGSGGSGGSGGSGGSGGSGGSGGSLSNVKYNFMRIIKYEFILNDALNQAIIRANDQYLTAAALHNLDEAVKFDMGAYKSSKDDAKITVILRISKTQLYVTAQDEDQPVLLKEMPEIPKTITGSETNLLFFWETHGTKNYFTSVAHPNLFIATKQDYWVCLAGGPPSITDFQILENQA
B7: CD8 VHH_5GGS_Fc_hole + Fc-knob_20GGS_IL1α delta 1-6_S31G (Fc fusion)
chain 1: B1 chain 1
chain 2: [letters of human IgG1 Fc with changes not shown]GGSGGSGGSGGSGGSGGSGGSGGSGGSGGSGGSGGSGGSGGSGGSGGSGGSGGSGGSGGSLSNVKYNFMRIIKYEFILNDALNQGIIRANDQYLTAAALHNLDEAVKFDMGAYKSSKDDAKITVILRISKTQLYVTAQDEDQPVLLKEMPEIPKTITGSETNLLFFWETHGTKNYFTSVAHPNLFIATKQDYWVCLAGGPPSITDFQILENQA
B8: CD8 VHH_5GGS_Fc_hole + Fc-knob_20GGS_IL1α delta 1-6_N29A (Fc fusion)
chain 1: B1 chain 1
chain 2: [letters of human IgG1 Fc with changes not shown]GGSGGSGGSGGSGGSGGSGGSGGSGGSGGSGGSGGSGGSGGSGGSGGSGGSGGSGGSGGSLSNVKYNFMRIIKYEFILNDALAQSIIRANDQYLTAAALHNLDEAVKFDMGAYKSSKDDAKITVILRISKTQLYVTAQDEDQPVLLKEMPEIPKTITGSETNLLFFWETHGTKNYFTSVAHPNLFIATKQDYWVCLAGGPPSITDFQILENQA
B9: CD8 VHH_5GGS_Fc_hole + Fc-knob_20GGS_IL1α delta 1-6_N29D (Fc fusion)
chain 1: B1 chain 1
chain 2: [letters of human IgG1 Fc with changes not shown]GGSGGSGGSGGSGGSGGSGGSGGSGGSGGSGGSGGSGGSGGSGGSGGSGGSGGSGGSGGSLSNVKYNFMRIIKYEFILNDALDQSIIRANDQYLTAAALHNLDEAVKFDMGAYKSSKDDAKITVILRISKTQLYVTAQDEDQPVLLKEMPEIPKTITGSETNLLFFWETHGTKNYFTSVAHPNLFIATKQDYWVCLAGGPPSITDFQILENQA
B10: CD8 VHH_5GGS_Fc_hole + Fc-knob_20GGS_IL1α delta 1-6_N29G (Fc fusion)
chain 1: B1 chain 1
chain 2: [letters of human IgG1 Fc with changes not shown]GGSGGSGGSGGSGGSGGSGGSGGSGGSGGSGGSGGSGGSGGSGGSGGSGGSGGSGGSGGSLSNVKYNFMRIIKYEFILNDALGQSIIRANDQYLTAAALHNLDEAVKFDMGAYKSSKDDAKITVILRISKTQLYVTAQDEDQPVLLKEMPEIPKTITGSETNLLFFWETHGTKNYFTSVAHPNLFIATKQDYWVCLAGGPPSITDFQILENQA

Biological target: T1, IL-1R (IL-1 Receptor)
Assay: cell-based or functional assay

NF-KB signal, -CD8 cells, 1 ng/ml | NF-KB signal, -CD8 cells, 10 ng/ml | NF-KB signal, -CD8 cells, 100 ng/ml | NF-KB signal, -CD8 cells, 1000 ng/ml | Binder
0.01 rel. to 100 ng/ml IL1α | 0.03 rel. to 100 ng/ml IL1α | 0.14 rel. to 100 ng/ml IL1α | 0.61 rel. to 100 ng/ml IL1α | B1
0.02 rel. to 100 ng/ml IL1α | 0.01 rel. to 100 ng/ml IL1α | 0.03 rel. to 100 ng/ml IL1α | 0.36 rel. to 100 ng/ml IL1α | B2
0.02 rel. to 100 ng/ml IL1α | 0.02 rel. to 100 ng/ml IL1α | 0.01 rel. to 100 ng/ml IL1α | 0.06 rel. to 100 ng/ml IL1α | B3
0.01 rel. to 100 ng/ml IL1α | 0.02 rel. to 100 ng/ml IL1α | 0.04 rel. to 100 ng/ml IL1α | 0.25 rel. to 100 ng/ml IL1α | B4
0.01 rel. to 100 ng/ml IL1α | 0.02 rel. to 100 ng/ml IL1α | 0.01 rel. to 100 ng/ml IL1α | 0.02 rel. to 100 ng/ml IL1α | B5

Biological target: T1, IL-1R (IL-1 Receptor)
Assay: cell-based or functional assay
Remark: another data set of the same source

EC50 parental cell line (SEAP, HekBlue-IL-1β) [ng/mL] | Binder
349 | B1
3.5 | B6
8.3 | B7
2.5 | B8
79.2 | B9
3.2 | B10

Biological target: human CD8 alpha (human, UniProt P01732 22-235)
Assay: cell-based or functional assay

Sequence of UniProt P01732 (P01732 22-235): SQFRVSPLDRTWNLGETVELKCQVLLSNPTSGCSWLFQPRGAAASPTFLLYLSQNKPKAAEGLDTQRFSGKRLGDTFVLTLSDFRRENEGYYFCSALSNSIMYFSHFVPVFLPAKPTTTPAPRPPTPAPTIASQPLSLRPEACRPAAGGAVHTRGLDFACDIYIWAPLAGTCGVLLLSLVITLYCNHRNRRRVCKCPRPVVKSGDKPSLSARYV

EC50 CD8 cell line (SEAP, HekBlue-IL-1β) [ng/mL] | Ratio (EC50 parental / CD8 cell line) | Binder
0.0008 | 4320 | B6
0.086 | 97 | B7
0.0002 | 12500 | B8
0.27 | 293 | B9
0.0005 | 6040 | B10

Biological target: T1, IL-1R (IL-1 Receptor)
Assay: cell-based or functional assay
Remark: another data set of the same source

EC50 mock transfected (NF-KB reporter, HEK293T) [ng/mL] | Binder
2960 | B1
